# From PubChem BioAssay AID686979 (National Center for Advancing Translational Sciences (NCATS), 2013)
# Where “and” joins values, the source holds several entries; their conditions need not be identical. Equal values may be shown once. The whole screen tested about 420,000 compounds, of which about 50,000 (12%) were called active. Inconclusive means that the source gave no clear call. Such entries were picked first, then a sample of the others. Calls follow the shape of the dose curve; as a rule, active = well fitted inhibition curve with a large enough effect; inconclusive = small, poorly fitted or top-dose-only effect; inactive = flat fitted curve, though single readings scatter. No potency is given beside an inconclusive call; the fits are too rough.
# Test: qHTS for Inhibitors of human tyrosyl-DNA phosphodiesterase 1 (TDP1): qHTS in cells in presence of CPT; also: nearly all actives have a fitted effect of over 55% in size
# Settings: chicken DT40 Tdp1-/-;hTDP1 cells + 20 nM CPT, ATP luminescence, 48 h; activity change, negative = growth inhibition: at 46.2 µM (top of the series) unless noted
# Procedure, shortened: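 Cell growth measured by CellTiter-Glo luminescence after a minimum 48 h, 37 C compound exposure with 20 nM CPT in Tdp1-knockout DT40 cells stably expressing hTDP1, seeded 400/well; qHTS titration format.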
# % is scaled to controls: 0 for no effect and ±100 for the full control effect; potency is read from the fitted curve at half-maximal effect; tags tell the direction and shape of the fitted curve.
Compound,Potency,"activity change, negative = growth inhibition"
CCC1(CC)Cc2ccccc2C(N)=C1C#N,active: 20.6 µM,
CN(CC(=O)Nc1ccc(F)cc1)C(=O)c1ccc(OCc2cn3ccccc3n2)cc1,"inconclusive [inhibitor, single point]",
O=C(NCCc1cccc(C(F)(F)F)c1)C1CCC(=O)N(Cc2ccc(Cl)cc2)C1 (centres undefined),"inconclusive [inhibitor, single point]",
CC[C@H](C)[C@@H](CN[C@H](C)CNC)NCCC(c1ccccc1)c1ccccc1,active: 5.17 µM,
Cc1ccc(C)c(Nc2nn3c(=O)c4ccc(C(=O)NCCc5ccccc5)cc4nc3s2)c1,active: 3.66 µM,
Cc1cc(C)c(-c2noc(C(=O)OC(C)(C)C)c2C(=O)OC(C)(C)C)c(C)c1,"inconclusive [inhibitor, single point]",
COc1cc(CN2C(=O)C(NC(=O)c3ccco3)(C(F)(F)F)C3=C2CC(C)(C)CC3=O)cc(OC)c1 (centres undefined),,inactive: -22.6%
Cc1ccc(NC2=C(C(=O)c3ccccc3)N(C)S(=O)(=O)c3ccccc32)cc1,active: 29.1 µM,
COc1ccc(/C=C2\SC(=O)N(CCNC(=O)Cn3[nH]c(=O)c4ccccc4c3=O)C2=O)cc1,,inactive: -7.35%
C/C(Cl)=C\Cn1c(Nc2cccc(C)c2)nc2c1c(=O)n(C)c(=O)n2C,"inconclusive [inhibitor, single point]",
Cc1ccc(N2CCN(C(=O)c3c4c(nc5ccccc35)C(=O)N(C3CCCCC3)C4)CC2)c(C)c1,active: 9.2 µM,
C/C(CCN1CCc2nc(-c3ccccc3)c(-c3ccccc3)cc2C1)=N\O[C@@H](C)c1cc(-c2c(C)cc(C)cc2C)no1,"inconclusive [inhibitor, single point]",
CCOC(=O)N1CCN(S(=O)(=O)c2ccc(OCC)c3ccccc23)CC1,active: 16.4 µM,
C#CCOCCOCCOCCNc1nc(N2CCOCC2)nc(N2CCN(C(=O)CCCCCCCCCCNC(=O)[C@H](CO)n3cc(CCCSC)nn3)CC2)n1,active: 23.1 µM,
C[C@@H](CN(C)C)CN1c2ccccc2Sc2ccccc21,"inconclusive [inhibitor, single point]",
Cc1snc(SCc2ccc(F)cc2)c1C#N,"inconclusive [inhibitor, single point]",
CN(C)c1ncnc2ccc(-c3ccc4c(c3)OCO4)cc12,"inconclusive [inhibitor, partial curve, poor fit]",
Cc1c(C(=O)N2CC(C)OC(C)C2)oc2ccccc12 (centres undefined),,inactive: -12.7%
COc1cc(/C=C/C(=O)N2CCC=CC2=O)cc(OC)c1OC,active: 4.11 µM and active: 2.06 µM,
COc1ccc(-c2cc(=O)n(-c3nc4ccccc4[nH]3)[nH]2)cc1,active: 35.5 µM,
Cc1ccc(C)c(N2CCN(C(=O)Cn3c(-c4cccs4)cc4ccccc43)CC2)c1,"inconclusive [inhibitor, single point]",
CN(C)c1ccc2nc3ccc(=[N+](C)C)cc-3sc2c1,active: 1 µM and active: 1.88 µM and active: 1.16 µM,
COc1ccc(-c2cnnc(N/N=C/c3ccc(-c4ccc([N+](=O)[O-])cc4)o3)n2)cc1,active: 1.16 µM,

Compound,Potency,"activity change, negative = growth inhibition"
Cc1ccc(C(=O)NCCC2=CCCCC2)cc1S(=O)(=O)N1CCCCC1,"inconclusive [inhibitor, single point]",
Cc1n[nH]c(C)c1S(=O)(=O)N1CCCC(C(=O)Nc2ccc(Cl)cc2)C1 (centres undefined),"inconclusive [inhibitor, partial curve]",
Cc1cnc(-c2nc3ccccc3n2C(C)C(=O)Nc2c(C)cccc2C)cn1 (centres undefined),"inconclusive [inhibitor, single point]",
CCOC(=O)[C@]12CCCC=C1N(Cc1ccccc1)C(=O)[C@H](CC(=O)N1CCN(C(=O)C3CC3)CC1)C2,,inactive: 1.92%
N#CCc1c(C#N)c(N)nc(N2CCN(c3ccc(F)cc3)CC2)c1C#N,"inconclusive [inhibitor, partial curve]",
COc1ccc(C(=O)Nc2nc3c(s2)CCc2cc(OC)ccc2-3)cc1,active: 23.1 µM,
COc1cc2nc(CC(O)c3nc4cc(OC)c(OC)cc4[nH]3)[nH]c2cc1OC (centres undefined),active: 7.08 µM,
COc1cccc(-c2cnc(C(O)c3ccc(F)cc3C)[nH]2)c1 (centres undefined),"inconclusive [inhibitor, single point]",
CNC(=O)c1sc(Nc2ccc(OCc3ccccc3)cc2)nc1C,"inconclusive [inhibitor, single point]",
Cc1cccc(C)c1NC(=O)C1CCCCN1C (centres undefined),"inconclusive [inhibitor, single point]",
CCOC(=O)c1c(C)oc2cc(Br)c(OC(C)C(=O)OCC)cc12 (centres undefined),"inconclusive [inhibitor, single point]",
O=C1C=C(NC2CCCC2)CC(c2ccccc2)C1 (centres undefined),"inconclusive [inhibitor, single point]",
O=c1cc(-c2ccccc2Cl)oc2cccc(O)c12,,inactive: -0.158%
COc1ccc(Cn2c(=O)c3cccnc3n(Cc3ccc([N+](=O)[O-])cc3)c2=O)cc1,"inconclusive [inhibitor, single point]",
COc1ccc(NC(=S)N2CCN(C/C=C/c3ccccc3)CC2)c(OC)c1,"inconclusive [inhibitor, single point]",
Cc1ccc(-n2ncc3c(N4CCN(CCO)CC4)ncnc32)cc1Cl,active: 11.6 µM,
Cc1ccc(NC(=O)CSc2ccccc2NC(=O)c2cccc(Cl)c2)cc1Cl,,inactive: -54.3%
Cc1nc2[nH]c(=O)c3c(n2n1)NC1=C(C(=O)CC(C)(C)C1)C3c1ccc(F)cc1 (centres undefined),"inconclusive [inhibitor, single point]",
COc1cccc(S(=O)(=O)Nc2ccc(C(=O)N3CCCCCC3)cc2)c1,"inconclusive [inhibitor, single point]",
CCCn1c(NCc2ccc3c(c2)OCO3)nc2ccccc21,"inconclusive [inhibitor, single point]",
O=C(Nc1ccc(Cc2ccncc2)cc1)c1cc([N+](=O)[O-])ccc1N1CCOCC1,"inconclusive [inhibitor, single point]",
NC1=NC(=Nc2ccc(S(=O)(=O)N3CCOCC3)cc2)c2ccccc21,"inconclusive [inhibitor, single point]",
C[C@@H]1CN([C@H](C)CO)C(=O)CCCn2nncc2CO[C@H]1CN(C)C(=O)OCc1ccccc1,,inactive: -13.5%

Compound,Potency,"activity change, negative = growth inhibition"
Cc1ccc(S(=O)(=O)Nc2ncc(C(F)(F)F)cc2Cl)cc1,,inactive: -0.596%
COc1ccc(N/C=C(\C#N)S(=O)(=O)c2ccc(Cl)cc2)c(OC)c1,,inactive: -8.7%
C/C=C(\C)C(=O)NCCN1C2=NC[C@@H](C)N2C[C@@H]1Cc1ccc(OC)cc1,,inactive: -14.9%
O=C(c1cc2ccccc2cc1O)N1CCN(c2ccc([N+](=O)[O-])cc2)CC1,active: 29.1 µM,
Cc1cccc(C(=O)N2CCc3cc(CNC(=O)Cc4ccc(F)cc4)ccc32)c1,active: 16.4 µM,
CCOC(=O)C(C)/C(C)=N/NC(N)=S (centres undefined),active: 18.4 µM,
C=CCN1C(=O)CS/C1=N\S(=O)(=O)c1ccc(Cl)cc1,,inactive: -1.68%
CN(C1CCCCC1)S(=O)(=O)c1ccc(=S)[nH]c1,"inconclusive [inhibitor, single point]",
CCc1ccccc1N(C)C(=O)c1cnc(N2CCOCC2)c2ccccc12,"inconclusive [inhibitor, single point]",
CC(C)(C)OC(=O)[C@H](Cc1ccccc1)NC(=O)c1nc[nH]c1C(=O)N1CCc2ccccc2C1,"inconclusive [inhibitor, partial curve, poor fit]",
Cc1cc(NC(=S)NC(=O)C2CC2)ccc1Br,"inconclusive [inhibitor, single point]",
C=CCn1c(=O)c2ccccc2n2c(SCC(=O)c3ccccc3)nnc12,"inconclusive [inhibitor, single point]",
COc1ccc(NC(=O)/C=N/O)cc1,,inactive: 0.147%
Cc1ccc(S(=O)(=O)n2nccc2-c2c(-c3ccc(Cl)cc3)noc2C)cc1,"inconclusive [inhibitor, single point]",
CC(C)Nc1nc(N)c(C(=O)C23CC4CC(CC(C4)C2)C3)s1,active: 20.6 µM,
Cc1nn(C)c(Cl)c1CN1CCCC(C(=O)Nc2ccc(-c3cscn3)cc2)C1 (centres undefined),active: 16.4 µM,
CC(C)(C)NC(=O)c1cc(NC(=O)c2cccs2)cc(NC(=O)c2cccs2)c1,"inconclusive [inhibitor, single point]",
COc1ccc(-c2csc(NC(=O)c3c(C)noc3C)n2)cc1OC,active: 20.6 µM,
CCOc1cc(/C=C/c2nc3cc(C)c(C)cc3s2)ccc1OCC(=O)N1CCOCC1,"inconclusive [inhibitor, single point]",
CCOC(=O)C1=C[C@@H](C(C)(C)C)N(S(=O)(=O)c2ccccc2C)[C@H]1c1ccc(Cl)cc1,"inconclusive [inhibitor, single point]",
Cc1cc(S(=O)(=O)NCc2ccco2)c(C)cc1Cl,"inconclusive [inhibitor, single point]",
Cc1ccc(CNC(=O)c2[nH]c(C(F)(F)F)nc2-c2ccccc2)cc1,"inconclusive [inhibitor, single point]",
CS(=O)(=O)Nc1cccc(-c2nc(Nc3ccccc3)c3ccccc3n2)c1,active: 9.2 µM,
